# Some of the results follow. At the low end of the ranking the order means little.
# Target: GST-SBP-SLBP (stem-loop binding protein) (UniProt Q14493)
# Test: targeted RNA Bind-n-Seq;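 note: DESeq read counts versus GST-SBP nonspecific binding control pulldown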
# Conditions: RBNS binding buffer: 25 mM Tris pH 7.5, 150 mM KCl, 3 mM MgCl2, 0.1% Tween, 0.5 mg/mL BSA, 1 mM DTT; 27 nM protein, 750 pM RNA pool; temperature not stated; high values mean tight binding
row,Sequence,binding signal (log2 fold change)
1,GGUCACGUCUCAAUCAACUCAAUCCCCAGGGAAAACCCUGGUAUUCUCAACAGCUCGCAGUCAAG,0.102
2,GGUCACGUCUCAAUCAACUCUAUGUCAGGAGUUUACUCCUGCUAAUUCAACAGCUCGCAGUCAAG,0.0189
3,GGUCACGUCUCAAUCAACUCACAAGAGGGGGGGAAAACCCCUUUGCCCUCGUAUUCAACAGCUCGCAGUCAAG,-0.492
4,GGUCACGUCUCAAUCAACUCUUCUUCCAGGGAAAACCCUGGUUAUCUCAACAGCUCGCAGUCAAG,-0.23
5,GGUCACGUCUCAAUCAACUCAUCUUCCAGGGAAAUCCCUGGCAAACUCAACAGCUCGCAGUCAAG,0.0166
6,GGUCACGUCUCAAUCAACUCCAAUGAGGGGGGGAAAACCCCUUUACCCUCCAAAUCAACAGCUCGCAGUCAAG,-0.373
7,GGUCACGUCUCAAUCAACUCAUUCCCAGGAGUUUCCUCCUGUAGUCUCAACAGCUCGCAGUCAAG,0.119
8,GGUCACGUCUCAAUCAACUCAAUCUCAGGAGUUUUCUCCUGCAAUGUCAACAGCUCGCAGUCAAG,0.14
9,GGUCACGUCUCAAUCAACUCAUUCUCCAGGGAAAACCCUGGCAUACUCAACAGCUCGCAGUCAAG,-0.116
10,GGUCACGUCUCAAUCAACUCUUCCCCCAGGGAAAGCCCUGGCAUUCUCAACAGCUCGCAGUCAAG,-0.00216
11,GGUCACGUCUCAAUCAACUCAUCUUCCAGGGAAAACCCUGGCUUAUUCAACAGCUCGCAGUCAAG,0.115
12,GGUCACGUCUCAAUCAACUCUAUUCCAGGAGUUUCCUCCUGUAUUCUCAACAGCUCGCAGUCAAG,-0.0423
13,GGUCACGUCUCAAUCAACUCAAUCUCAGGAGUUUGCUCCUGUAUACUCAACAGCUCGCAGUCAAG,0.0522
14,GGUCACGUCUCAAUCAACUCAUUCGAGGGGGGGAAAACCCCUUUGCCCUCAUCAUCAACAGCUCGCAGUCAAG,0.363
15,GGUCACGUCUCAAUCAACUCUAUUCCCAGGGAAAGCCCUGGCUAACUCAACAGCUCGCAGUCAAG,-0.13
16,GGUCACGUCUCAAUCAACUCCCAAGAGGGGGGGAAAACCCCUUUACCCUCAUCAUCAACAGCUCGCAGUCAAG,0.074
17,GGUCACGUCUCAAUCAACUCCUAAGAGGGGGGGAAAACCCCUUUACCCUCACCUUCAACAGCUCGCAGUCAAG,0.166
18,GGUCACGUCUCAAUCAACUCACAAGAGGGGGGGAAAACCCCUUUGCCCUCAUUCUCAACAGCUCGCAGUCAAG,-0.344
19,GGUCACGUCUCAAUCAACUCAUCUUCCAGGGAAAACCCUGGCGUUUUCAACAGCUCGCAGUCAAG,0.146
20,GGUCACGUCUCAAUCAACUCAUCGUCAGGAGUUUGCUCCUGCAUUUUCAACAGCUCGCAGUCAAG,-0.0606
